# Experimental data as given in PubChem BioAssay AID1346428 (National Center for Advancing Translational Sciences (NCATS), 2018).
# Values joined by “and” are separate entries in the source; they are usually repeats but may differ in a detail not shown here. Equal values may be shown once. Out of some 48,000 compounds screened, about 1,200 (2.5%) were called active. Another 2% or so got no clear call; they are omitted.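 The calls were made as follows: active = activation of at least 60% and not above a set upper limit (about 1 call in 100 departs from these limits); inconclusive = activation of 40% to 60%, or above that upper limit; inactive = activation under 40%.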 The list shows a part of the results.
# Biological target: Probable G-protein coupled receptor 32 (Homo sapiens) (UniProt O75388)
# Chain of UniProt O75388 (O75388 whole entry, looked up): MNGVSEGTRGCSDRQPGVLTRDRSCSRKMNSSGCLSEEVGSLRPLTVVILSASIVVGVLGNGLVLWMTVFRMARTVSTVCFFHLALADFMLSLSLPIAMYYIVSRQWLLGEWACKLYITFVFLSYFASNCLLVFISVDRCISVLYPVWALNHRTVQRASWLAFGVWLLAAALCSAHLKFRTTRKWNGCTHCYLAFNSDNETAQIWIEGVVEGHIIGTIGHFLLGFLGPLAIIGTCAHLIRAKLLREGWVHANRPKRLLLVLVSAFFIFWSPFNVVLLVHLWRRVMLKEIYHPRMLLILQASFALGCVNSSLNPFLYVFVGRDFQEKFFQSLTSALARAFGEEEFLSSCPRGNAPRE
# Experiment: qHTS for Agonists of Human Resolvin D1 Receptor DRV1; also: 0% is about no effect
# Settings: CHO-K1 GPR32 beta-arrestin PathHunter luminescence, 90 min; at 76.9 µM; active compounds read high; zero percent set by DMSO-only wells
# Outline: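 Agonism was scored as beta-arrestin recruitment to ProLink-fused GPR32 in stably transfected CHO-K1 cells, giving a chemiluminescent beta-Gal signal; compounds were incubated 90 min at 37 °C.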
row,Compound,activation
1,Cc1ccc(-c2nnc(SCC(=O)NCCC(C)C)nc2-c2ccc(C)cc2)cc1,inactive: -32.3%
2,COc1cccc(C2=NS(=O)(=O)N(C)C(C(=O)Nc3cccc(O)c3)=C2)c1,inactive: -16.3%
3,Cc1cc(OCC(=O)NCC2(N(C)C)CCCCC2)cc(C)c1Cl,inactive: -0.795%
4,CCN1CCN(C(c2cccc(Cl)c2)c2c(O)cc(C)n(CCOC)c2=O)CC1 (configuration not stated),inactive: -13.1%
5,Cc1ccc(CCNC(=O)CN2C(=O)COc3ccc(S(=O)(=O)N4CCC(C)CC4)cc32)cc1,inactive: -31.5%
6,COc1ccc(CC(=O)Nc2ccc(-c3nc4ccccc4s3)cc2Cl)cc1,inactive: 0.347%
7,Cc1cc(NC(=O)C2CCCN(S(=O)(=O)c3ccc(Br)s3)C2)ccc1Br (configuration not stated),inactive: -13.9%
8,COc1ccc(N2CCN(C(CNC(=O)C(=O)NCc3ccc(F)cc3)c3cccnc3)CC2)cc1 (configuration not stated),inactive: -9.58%
9,CCc1ccc(NC(=O)N(Cc2c[nH]c3ccccc23)C2CCCCCC2)cc1,inactive: -28.1%
10,O=C(NCc1ccccc1)C(=O)NCC(c1ccco1)S(=O)(=O)c1ccccc1 (configuration not stated),inactive: -1.49%
11,Cc1cc2nn(-c3ccc(F)cc3)nc2cc1NC(=O)c1cc(Cl)ccc1Cl,inactive: 7.85%
12,CCCCN1C(=O)C(O)(c2c(C)[nH]c3ccccc23)c2cc(Br)ccc21 (configuration not stated),inactive: -26%
13,CCCN(CCC)c1nn2c(=O)c(C(=O)NCc3cccc(OC)c3)cnc2s1,inactive: -16.5%
14,N#C/C(=C\c1ccc(O)c(O)c1)C(=O)Nc1ccccc1,inactive: -26.7%
15,COc1ccc(Cl)cc1NC(=O)CSc1nnc(C)n2c1cc1occc12,inactive: -9.62%
16,CN1CCN(C(=O)c2cnn(-c3cccc(F)c3)c2C2CCN(C(=O)OC(C)(C)C)CC2)CC1,inactive: -11.6%
17,Cc1ccc(C)c(CSc2c(C(C)C)cnc3c2c(=O)n(C)c(=O)n3C)c1,inactive: -20.6%
18,COc1ccc(N2CCN(C(CNC(=O)c3ccc(C)cc3)c3ccc4c(c3)OCO4)CC2)cc1 (configuration not stated),inactive: -30.4%
19,CCOc1ccc(/C=C/c2nc(C#N)c(N(C)C)o2)cc1,inactive: -6.26%
20,Cc1ccc(NC(=O)Cn2cc(S(=O)(=O)N3CCN(c4ccccc4F)CC3)c3ccccc3c2=O)cc1F,inactive: 7.5%
21,Cc1csc2nc(COc3ccc(NC(=O)COc4ccc(F)cc4)cc3)cc(=O)n12,inactive: 18.4%

row,Compound,activation
1,CC(C)c1ccc(CNc2nc(-c3ccco3)nn2S(=O)(=O)c2ccccc2)cc1,inactive: -29.6%
2,CCOc1ccccc1CNC(=O)c1nn(C)c2c1CS(=O)(=O)c1ccccc1-2,inactive: -15.3%
3,Cc1cc2c(cc1NC(=O)c1ccc(C(C)(C)C)cc1)n(C)c(=O)c(=O)n2C,inactive: 33.4%
4,COc1ccc(NC(=O)c2sc3nc[nH]c(=O)c3c2C)cc1,inactive: -14.1%
5,Cc1ccc(-c2cc(C(=O)Oc3ccccc3)c3cccc(C)c3n2)cc1,inactive: -15.2%
6,COC(=O)c1cc(S(=O)(=O)N2CCN(c3ccc(C)cc3C)CC2)cn1C,inactive: -6.94%
7,Cc1sc(-c2cc3ccccc3oc2=O)nc1-c1ccc(Cl)cc1,inactive: 20.4%
8,O=C(CN1C(=O)COc2ccc(S(=O)(=O)N3CCCC3)cc21)N1CCN(c2ccccc2F)CC1,inactive: -2.26%
9,Cc1ccccc1-c1nc(CS(=O)CC(=O)NCCc2ccc(Cl)cc2)c(C)o1 (configuration not stated),inactive: -11.9%
10,CC(C)Oc1ccc(CNC(=O)C2COc3ccccc3C2)cc1 (configuration not stated),inactive: -8.58%
11,O=C1CC(c2ccccc2)Cc2[nH]c(=O)c(-c3nc(-c4ccc(F)cc4)cs3)cc21 (configuration not stated),inactive: -77.4%
12,COC(=O)c1ccccc1NC(=O)Nc1cccc(OCc2cc(=O)n3cccc(C)c3n2)c1,inactive: -7.5%
13,CCCCCCOc1ccc(-c2nc3ccc(Br)cc3c(=O)o2)cc1,inactive: -0.102%
14,COc1ccc(-c2noc(-c3ccc(N4CCCCC4)c([N+](=O)[O-])c3)n2)cc1,inactive: 5.49%
15,CCOC(=O)c1cnc2ccc(OCC)cc2c1N1CCN(c2cccc(Cl)c2)CC1,inactive: -1.9%
16,CCOc1ccc(C2c3c(oc4ccc(C)cc4c3=O)C(=O)N2c2nc(C)c(C)s2)cc1OC (configuration not stated),inactive: -3.62%
17,O=C1CN(C(=O)C2CCCCC2)C(c2ccccc2)c2cc(F)ccc2N1 (configuration not stated),inactive: -5.34%
18,COc1cc(Cl)c(NS(=O)(=O)c2ccc3[nH]c(=O)ccc3c2)c(OC)c1,inactive: 0.933%
19,CCC1CCCCN1C(=O)Cn1c(=O)n(-c2ccccc2C(F)(F)F)c(=O)c2c(C)c(C(=O)N(C)C)sc21 (configuration not stated),inactive: -4.54%
20,CCCCC(=O)NC1(C(F)(F)F)C(=O)Nc2c1c(=O)[nH]c(=O)n2-c1ccc(F)cc1 (configuration not stated),inactive: -2.29%
21,Cc1ccc(C)c(NC(=O)C2CCCN(S(=O)(=O)c3cccc4nsnc34)C2)c1 (configuration not stated),inactive: 15.8%

row,Compound,activation
1,CCOc1ccc(NC(=O)C(CC)n2nc(-c3ccc(C)c(C)c3)ccc2=O)cc1 (configuration not stated),inactive: 0.369%
2,CCOc1ccc(OCC)c(NC(=O)CN(c2ccc(C)cc2)S(=O)(=O)c2c(C)n[nH]c2C)c1,inactive: 38.8%
3,Cc1ccc(NC(=O)Cn2c(=O)n(Cc3nc(-c4ccccc4)no3)c(=O)c3cc4c(cc32)OCO4)cc1C,inactive: -3.13%
4,COc1ccccc1N1CCN(C(c2ccccc2)c2nnc(-c3ccccc3Cl)o2)CC1 (configuration not stated),inactive: -40.6%
5,CCCNC(=O)c1cc2n(n1)CCCN(Cc1ccc(F)cc1)C2=O,inactive: 7.27%
6,O=C(c1ccc2c(c1)N(Cc1ccccc1F)C(=O)c1ccccc1S2(=O)=O)N1CCCCCC1,inactive: -28.1%
7,CC(C)=CCOc1ccc(/C=C/C(=O)c2ccc(OCC=C(C)C)cc2OCC(=O)O)cc1,inactive: 30.3%
8,C[C@@H]1CN(CCCn2c3ccccc3c3ccccc32)C[C@H](C)N1,inactive: 32.6%
9,COc1cccc(C(=O)c2sc(Nc3ccc(C)cc3C)c(S(=O)(=O)c3ccccc3)c2N)c1,inactive: -23.9%
10,CCOc1ccc(CCNC(=O)c2ccc(Cn3c(=O)c4cccn4c4cccnc43)cc2)cc1,inactive: -18%
11,COc1ccc(-c2csc3ncnc(Nc4ccc(OC)c(OC)c4)c23)cc1,inactive: 41.1%
12,Cc1cc(N2CCCCC2)nc2ccc(NC(=O)CCC(=O)N3CCN(c4cccc(Cl)c4)CC3)cc12,inactive: -9.97%
13,CCN(C(=O)Cn1c(SCc2ccccc2F)nc2cccnc21)c1ccccc1,inactive: -16.9%
14,CCOC(=O)c1sc(N2C(=O)c3oc4ccc(F)cc4c(=O)c3C2c2cccc(OC)c2)nc1C (configuration not stated),inactive: -4.24%
15,O=C(C1COc2ccccc2O1)N(Cc1cccnc1)c1nc2ccc(F)cc2s1 (configuration not stated),inactive: -8.93%
16,O=C(OCc1ccccc1)c1ccc(-c2nnn(Cc3ccccc3F)n2)cc1,inactive: -0.987%
17,O=C(CSCc1nc2cccnc2n1C1CCCCC1)NCc1cccc(Br)c1,inactive: -22.4%
18,CCOc1ccc(CCNC(=O)c2ccc3[nH]c(C)c(C)c3c2)cc1,active: 72.4%
19,Cc1ccc2scc(N3CCN(c4ccccc4)CC3)c(=O)c2c1,inactive: -49.5%
20,COc1ccc(CCNC(=O)c2cc3c(=O)n(C)c4cc(Cl)ccc4c3s2)cc1OC,inactive: -9.66%
21,COc1ccc(-c2[nH]c(-c3ccccc3)nc2SCC(=O)NC2CCCC2)cc1,inactive: -24.6%

row,Compound,activation
1,CCC1CN(C(=O)NCc2cccc(OC)c2)c2ccccc2O1 (configuration not stated),inactive: -24.4%
2,COc1cccc(NC(=O)C(=O)NCCc2sc(-c3cccc(C)c3)nc2C)c1,inactive: 36.1%
3,O=S1(=O)c2ccccc2N(Cc2ccccc2Cl)c2ccccc21,inactive: -7.9%
4,CCN1C(=O)c2ccccc2Sc2ccc(NC(=O)Nc3ccc(Br)c(C)c3)cc21,inactive: 9.29%
5,COc1ccc(-c2cc(NCc3ccc(C)cc3)n3cnnc3n2)cc1,inactive: 6.98%
6,Cc1ccc(-c2ccc(=O)n(CC(=O)NC(C)c3ccccc3)n2)cc1 (configuration not stated),inactive: 7.11%
7,CC(C(=O)O)c1cccc(Oc2ccccc2)c1 (configuration not stated),inactive: -8.06%
8,Cc1ccccc1NC(=O)Cn1c(=O)n(CCCCC(=O)NCc2ccccc2Cl)c(=O)c2ccccc21,inactive: -0.747%
9,Oc1ccc(C2CNCCc3c2cc(O)c(O)c3Cl)cc1 (configuration not stated),inactive: 6.45% and inactive: 3.84%
10,CCN(CC)S(=O)(=O)c1ccc(C(=O)NC2CC(=O)N(c3ccc4c(c3)OCCO4)C2)cc1 (configuration not stated),inactive: -5.88%
11,Cc1c(C(=O)OC2CCCCCC2)[nH]c2c1C(=O)CC(c1ccccc1Cl)C2 (configuration not stated),inactive: -3.29%
12,CCOC(=O)c1c(S(=O)(=O)N2CCC(C(=O)Nc3cccc(C#N)c3)CC2)c(C)n(C)c1C,inactive: -1.44%
13,O=C(CN1C(=O)COc2ccc(S(=O)(=O)Nc3ccccc3)cc21)NCc1ccccc1Cl,inactive: 5.01%
14,COc1ccc(NC(=O)Cn2c(=O)n(CCc3ccccc3)c(=O)c3sc4ccccc4c32)cc1,inactive: -5.44%
15,Cc1cc(C)nc(-n2nc(C)c3c2NC(=O)CC3c2ccccc2OC(C)C)n1 (configuration not stated),inactive: -14.7%
16,COc1ccc(CCNc2nc(SCc3ccccc3Cl)nc3ccccc23)cc1OC,inactive: -19.5%
17,CCOC(=O)c1ccc(N2C(=O)c3[nH]nc(-c4ccccc4)c3C2c2cccs2)cc1 (configuration not stated),inactive: -21%
18,Cc1ccnc(NS(=O)(=O)c2ccc(NC(=O)c3cc(=O)c4ccc(C)c(C)c4o3)cc2)n1,inactive: -5.73%
19,COC(=O)c1ccc(CSc2nc3c([nH]c4ccccc43)c(=O)n2-c2cccc(OC)c2)o1,inactive: -4.45%
